Measurements as given in the RNAGym collection of RNA variant scans (doi:10.1093/nar/gkz1192).
The source gives no read counts; variants with many changes may rest on few reads.

B1: CPEB3 Ribozyme (parent)
chain: UAACAGGGGGCCACAGCAGAAGCGUUCACGUCGCAGCCCCUGUCAGAUUCUGGUGAAUCUGCGAAUUCUGCUGUAUAUCUC

Variants of: B1
Test: self-cleavage, relative activity (ratio to wild type); higher = more cleavage; in vitro, sequencing
In short: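 After error-prone PCR and barcoding, CPEB3 ribozyme mutant libraries were transcribed with T7 RNA polymerase at 37°C for 5 hours, then given 15 min with DNase I before an EDTA stop, and they cleaved during both steps. Reverse transcription with template switching preceded Illumina sequencing. Relative activity divides a variant's cleaved/total read fraction by the unmutated ribozyme's. At least 5 reads were required per variant, and three batches were averaged.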

| Variant | self-cleavage |
| --- | --- |
| UAACAGGGGGCCACAGCAGAAGCGUUCACGUCGCAGCCCCUGUCUGAUUCUGGAGUAUCUGCGAAUUCUGCUGUAUAUCUC [A45U U54A A56U] | 0.22 |
| UAACAGGGGGCCACAGCAGAAGCGUUCACGUCGCAGCCCCUGUCUGAUUCUGGAGAAUAUGCGAAUUCUGCUGUAUAUCUC [A45U U54A C59A] | 0.17 |
| UAACAGGGGGCCACAGCAGAAGCGUUCACGUCGCAGCCCCUGUCUGAUUCUGGCGGAUCUGCGGAUCCUGCUGUAUAUCUC [A45U U54C A56G A64G U67C] | 0.23 |
| UAACAGGGGGCCACAGCAGAAGCGUUCACGUCGCAGCCCCUGUCUGAUUCUGGCGAAUCUGCGGACUCUGCUGUAUAUCUC [A45U U54C A64G U66C] | 0.11 |
| UAACAGGGGGCCACAGCAGAAGCGUUCACGUCGCAGCCCCUGUCUGAUUCUGGCGAAUCAGCGAAUUCCGCUGUAUAUCUC [A45U U54C U60A U69C] | 0.45 |
| UAACAGGGGGCCACAGCAGAAGCGUUCACGUCGCAGCCCCUGUCUGAUUCUGGCGAAUCUGCGAACUCCGCUGUAUAUCUC [A45U U54C U66C U69C] | 0.18 |
| UAACAGGGGGCCACAGCAGAAGCGUUCACGUCGCAGCCCCUGUCUGAUUCUGGGGAACCUGCGGAUCCCGCUGUAUAUCUG [A45U U54G U58C A64G U67C U69C C81G] | 0.11 |
| UAACAGGGGGCCACAGCAGAAGCGUUCACGUCGCAGCCCCUGUCUGAUUCUGGGGAAUCUGCGAAUCCUGCCGUAUAUCUC [A45U U54G U67C U72C] | 0.19 |
| UAACAGGGGGCCACAGCAGAAGCGUUCACGUCGCAGCCCCUGUCUGAUUCUGGUGAAACUGCGAAUUCCGCUGUAUAUCUC [A45U U58A U69C] | 0.09 |
| UAACAGGGGGCCACAGCAGAAGCGUUCACGUCGCAGCCCCUGUCUGAUUCUGGUGAAACUGCGAAUUCCGCCGUAUAUCCC [A45U U58A U69C U72C U80C] | 0.14 |
| UAACAGGGGGCCACAGCAGAAGCGUUCACGUCGCAGCCCCUGUCUGAUUCUGGUGAACCUGCGUAUACUGCUGUAUAUCUC [A45U U58C A64U U67A] | 0.11 |
| UAACAGGGGGCCACAGCAGAAGCGUUCACGUCGCAGCCCCUGUCUGAUUCUGGUGAACUUGCGAAUUCUGCUGUAUAUCUC [A45U U58C C59U] | 0.21 |
| UAACAGGGGGCCACAGCAGAAGCGUUCACGUCGCAGCCCCUGUCUGAUUCUGGUGAACCUGCGAAUCCUGCCGUAUAUCUC [A45U U58C U67C U72C] | 0.1 |
| UAACAGGGGGCCACAGCAGAAGCGUUCACGUCGCAGCCCCUGUCUGAUUCUGGUGAAUCAGCGGAUACUGCUGUAUAUCUC [A45U U60A A64G U67A] | 0.25 |
| UAACAGGGGGCCACAGCAGAAGCGUUCACGUCGCAGCCCCUGUCUGAUUCUGGUGAAUCAGCGAGUUCCGCUGUAUACCUC [A45U U60A A65G U69C U78C] | 0.1 |
| UAACAGGGGGCCACAGCAGAAGCGUUCACGUCGCAGCCCCUGUCUGAUUCUGGUGAAUCAGCGAAUUCCGCUGAAUAUCUC [A45U U60A U69C U74A] | 0.58 |
| UAACAGGGGGCCACAGCAGAAGCGUUCACGUCGCAGCCCCUGUCUGAUUCUGGUGAAUCAGCGAAUUCUGCUGUAUACCUC [A45U U60A U78C] | 1.13 |

| Variant | self-cleavage |
| --- | --- |
| UAACAGGGGGCCACAGCAGAAGCGUUCACGUCGCAGCCCCUGUCUGAUUCUGGUGAAUCCGCGUAUUCUGCUGUCUAUCUC [A45U U60C A64U A75C] | 0.25 |
| UAACAGGGGGCCACAGCAGAAGCGUUCACGUCGCAGCCCCUGUCUGAUUCUGGUGAAUCCGCGAGUUCUGCUGUAUAUCUC [A45U U60C A65G] | 0.14 |
| UAACAGGGGGCCACAGCAGAAGCGUUCACGUCGCAGCCCCUGUCUGAUUCUGGUGAAUCCGCGAAUUUUGCUGUAUAUCUC [A45U U60C C68U] | 0.27 |
| UAACAGGGGGCCACAGCAGAAGCGUUCACGUCGCAGCCCCUGUCUGAUUCUGGUGAAUCUGCGAACCCUGCUGUAUAUCGC [A45U U66C U67C U80G] | 0.17 |
| UAACAGGGGGCCACAGCAGAAGCGUUCACGUCGCAGCCCCUGUCUGAUUCUGGUGAAUCUGCGAACUCAGCUGUAUAUCUC [A45U U66C U69A] | 0.23 |
| UAACAGGGGGCCACAGCAGAAGCGUUCACGUCGCAGCCCCUGUCUGAUUCUGGUGAAUCUGCGAACUCUGCGCUAUAUCUC [A45U U66C U72G G73C] | 0.35 |
| UAACAGGGGGCCACAGCAGAAGCGUUCACGUCGCAGCCCCUGUCUGAUUCUGGUGAAUCUGCGAACUCUGCUGUAUAUCGC [A45U U66C U80G] | 0.17 |
| UAACAGGGGGCCACAGCAGAAGCGUUCACGUCGCAGCCCCUGUCUGAUUCUGGUGAAUCUGCGAAUACCGCUGUAUAUCUC [A45U U67A U69C] | 0.33 |
| UAACAGGGGGCCACAGCAGAAGCGUUCACGUCGCAGCCCCUGUCUGAUUCUGGUGAAUCUGCGAAUCCUGCUGUUUAUCUC [A45U U67C A75U] | 0.15 |
| UAACAGGGGGCCACAGCAGAAGCGUUCACGUCGCAGCCCCUGUCUGAUUCUGGUGAAUCUGCGAAUCCUGCCGUAUGUCUC [A45U U67C U72C A77G] | 0.34 |
| UAACAGGGGGCCACAGCAGAAGCGUUCACGUCGCAGCCCCUGUCUGAUUCUGGUGAAUCUGCGAAUCCUGCUGUAUAUCCC [A45U U67C U80C] | 0.29 |
| UAACAGGGGGCCACAGCAGAAGCGUUCACGUCGCAGCCCCUGUCUGAUUCUGGUGAAUCUGCGAAUUCAGCAGUAUAUCUC [A45U U69A U72A] | 0.28 |
| UAACAGGGGGCCACAGCAGAAGCGUUCACGUCGCAGCCCCUGUCUGAUUCUGGUGAAUCUGCGAAUUCCGCAGUAUAUCUC [A45U U69C U72A] | 0.16 |
| UAACAGGGGGCCACAGCAGAAGCGUUCACGUCGCAGCCCCUGUCUGAUUCUGGUGAAUCUGCGAAUUCCGCUGUACAUCUC [A45U U69C U76C] | 0.32 |
| UAACAGGGGGCCACAGCAGAAGCGUUCACGUCGCAGCCCCUGUCUGAUUCUGGUGAAUCUGCGAAUUCCGCUGUAUAACUC [A45U U69C U78A] | 0.4 |
| UAACAGGGGGCCACAGCAGAAGCGUUCACGUCGCAGCCCCUGUCUGAUUCUGGUGAAUCUGCGAAUUCUGCAGUACAUCUC [A45U U72A U76C] | 0.42 |
| UAACAGGGGGCCACAGCAGAAGCGUUCACGUCGCAGCCCCUGUCUGAUUCUGGUGAAUCUGCGAAUUCUGCAGUAUAUCCC [A45U U72A U80C] | 1.03 |
